From ChEMBL document CHEMBL4888484, “Replenishing the malaria drug discovery pipeline: Screening and hit evaluation of the MMV Hit Generation Library 1 (HGL1) against asexual blood stage Plasmodium falciparum ,using a nano luciferase reporter read-out” (2022)
Among all 150,000 compounds or so, about 540 (0.36%) showed an effect of 50% or more. The list shows a part of the results.

The compounds below were run on Plasmodium falciparum (assay: Primary screen in NF54 nanoGlo assay, in single point, at 2uM, 72h; a lower Z score goes with more inhibition). Details: timepoint 72 hour.
Type: functional, Erythrocyte
With `CCn1ncnc1[C@H](C)NC(=O)c1ccc(CCC(C)(C)O)cc1` the “% Inhibition” value was 2% and the Z score was -0.31. `Cc1onc(C(=O)N2CC(=O)N(CC(C)C)C[C@H](O)C2)c1COc1ccccc1` was tested, and the “% Inhibition” value was 6% and the Z score was -0.78. For `COCCN1C(=O)[C@@H]2CC[C@H]1CN(C(=O)c1csc(CN(C)C)n1)C2`, the “% Inhibition” value was -13% and the Z score was 2.4. For `Cc1ccn2c(=O)c(C(=O)NCc3ccncc3)c(O)nc2c1`, the “% Inhibition” value was -13% and the Z score was 1.74. With `CCc1nn2c(c1-c1ccc(OC)c(S(=O)(=O)N3CCOCC3)c1)NC(=O)CCC2=O` the “% Inhibition” value was -9% and the Z score was 1.01. `CC(C)c1ccoc1C(=O)Nc1nn(C(C)C)cc1C#N` was tested, and the “% Inhibition” value was -8% and the Z score was 0.88. `CN(C)c1ncccc1N(C)S(=O)(=O)c1ccc(C#N)cc1` was tested, and the “% Inhibition” value was -11% and the Z score was 1.72. For `Cn1nc([C@@H]2CCCN2C(=O)COc2ccc(F)cc2)c2c1CCOC2`, the “% Inhibition” value was -11% and the Z score was 1.03. `COC(=O)[C@H](CC1CCCCC1)NC(=O)[C@@H]1CN(C(=O)c2ccc(N(C)C)cc2)CCN1C(C)=O` was tested, and the “% Inhibition” value was 10% and the Z score was -1.19. In the case of `CC(C1CC1)N(C)C(=O)C1Cc2ccccc2O1` (centres undefined), the “% Inhibition” value is reported as -11% and the Z score is reported as 1.56. With `CC(C)OC(=O)Cn1nc2c(S(=O)(=O)N3CCCCC3)cccn2c1=O` the “% Inhibition” value was 1% and the Z score was -0.17. With `O=C1COC2CCN(C(=O)c3c[nH]nc3-c3ccsc3)CC2N1` (centres undefined) the “% Inhibition” value was -10% and the Z score was 1.49. In the case of `CN(C)C1(CC2CC2)CCN(Cc2cccc(C#N)c2)CC1`, the “% Inhibition” value is reported as -3% and the Z score is reported as 0.54. In the case of `CN(C(=O)CC1(O)CCCCC1)[C@H]1CCN(CC(F)(F)F)C1=O`, the “% Inhibition” value is reported as -10% and the Z score is reported as 1.38. With `Oc1ccnc([C@H]2CC[C@H](Nc3ncccn3)CC2)n1` the “% Inhibition” value was -2% and the Z score was 0.45. In the case of `COC(=O)c1ncnc(NCc2nc(C(F)(F)F)c[nH]2)c1OC`, the “% Inhibition” value is reported as -6% and the Z score is reported as 0.82. In the case of `CC(C)[C@@H]1N(c2ccc(S(C)(=O)=O)cn2)CC12CCCC2`, the “% Inhibition” value is reported as -5% and the Z score is reported as 0.69. With `Cc1cccc(NC(=O)c2cc(C)n(Cc3ccccn3)c2C)c1C` the “% Inhibition” value was -1% and the Z score was 0.1. With `Cn1c(C(=O)N2CCCCC2)cc2cc(S(=O)(=O)N3CCCCC3)ccc21` the “% Inhibition” value was -10% and the Z score was 1.82. With `C=C[C@H](CO)NC(=O)CC1C(=O)Nc2c(F)cccc21` (some centres undefined) the “% Inhibition” value was -11% and the Z score was 1.51. In the case of `Cc1cc(F)ccc1NC(=O)C(=O)NC[C@H](O)C(C)(C)C`, the “% Inhibition” value is reported as -2% and the Z score is reported as 0.26. In the case of `CCC[C@H]1CN(C(=O)C(C)(C)Oc2ccc(C)cc2)C[C@@H]1N`, the “% Inhibition” value is reported as 19% and the Z score is reported as -2.52. With `O=C(c1nccc2ccccc12)N1CC[C@H](Oc2ncccc2Br)C1` the “% Inhibition” value was -2% and the Z score was 0.46. With `Cc1nn(C)c(C)c1CCN(C)c1ncc2c(=O)n(C3CCCC3)c(=O)[nH]c2n1` the “% Inhibition” value was 5% and the Z score was -0.78. For `Cc1nc2cc(OCc3cc(C(=O)N(C)C4CCOCC4)no3)ccc2s1`, the “% Inhibition” value was -11% and the Z score was 1.2. In the case of `C[C@@H](NC1CCN(CC(F)F)CC1)c1cccc(O)c1`, the “% Inhibition” value is reported as -1% and the Z score is reported as 0.1. For `Cc1ccccc1-c1onc(C)c1C(=O)N1CCC(Cc2ccccc2)CC1`, the “% Inhibition” value was 1% and the Z score was -0.11. With `CC1(C)C[C@H](Nc2cccc(N3CCS(=O)(=O)CC3)c2)CO1` the “% Inhibition” value was -11% and the Z score was 1.42. For `CC1=NS(=O)(=O)c2cc(S(=O)(=O)CC(=O)Nc3cc(Cl)ccc3C)ccc2N1`, the “% Inhibition” value was -2% and the Z score was 0.33. In the case of `CN1CCC(N2CCC(CN(Cc3ccncc3)Cc3c(F)cccc3Cl)CC2)CC1`, the “% Inhibition” value is reported as 98% and the Z score is reported as -9.12. For `Cc1noc(C)c1CCc1nc(COc2cccc(Cl)c2)n[nH]1`, the “% Inhibition” value was -7% and the Z score was 1.45. For `C[C@H]1C[C@@H](C(=O)N2CC[C@H]3CCCC[C@H]32)CCN1C`, the “% Inhibition” value was -10% and the Z score was 1.93. `O=c1[nH]nc(-c2ccc(Cl)cc2)c2cn(-c3ccc(Cl)cc3)nc12` was tested, and the “% Inhibition” value was -14% and the Z score was 1.65. In the case of `CCOC(=O)Cc1csc(NC(=O)COc2cc(C)on2)n1`, the “% Inhibition” value is reported as -19% and the Z score is reported as 3.58. In the case of `COCCOc1nc(-c2ccco2)n(-c2cccc(NC(=O)c3ccccc3F)c2)n1`, the “% Inhibition” value is reported as 13% and the Z score is reported as -1.84. In the case of `COc1ccc(-c2ccc(N3CCN(C(=O)CN(Cc4ccc5c(c4)OCO5)C(=O)c4ccc5c(c4)OCO5)CC3)nn2)c(OC)c1`, the “% Inhibition” value is reported as -1% and the Z score is reported as 0.2. `O=C(Nc1ccc(S(=O)(=O)Nc2nccs2)cc1)C1=NN(c2ccccc2)C(=O)CC1` was tested, and the “% Inhibition” value was 22% and the Z score was -3.87. With `CC1(C(=O)NCCCc2cnoc2)CC2CCC1C2` (centres undefined) the “% Inhibition” value was -7% and the Z score was 1.32. In the case of `O=C1N[C@H]2CC[C@@H]1CN(Cc1cc3ccccc3o1)C2`, the “% Inhibition” value is reported as -15% and the Z score is reported as 1.9. `O=S(=O)(N[C@H](c1cccs1)C1(CO)CCC1)N1CCCC1` was tested, and the “% Inhibition” value was 2% and the Z score was -0.37. `COc1ccccc1OC1(C(=O)O)CCN(c2ncnc3ccsc23)CC1` was tested, and the “% Inhibition” value was -4% and the Z score was 0.48. For `O=C(NCC1(CF)CCOCC1)c1cnnc2ccccc12`, the “% Inhibition” value was 2% and the Z score was -0.2. In the case of `COc1cccc(CC2=NO[C@H](C(=O)N(Cc3ccccc3)CC3CC3)C2)c1`, the “% Inhibition” value is reported as 0% and the Z score is reported as -0.05. `COc1ccc(-c2cc(C(=O)N3CCN(c4ccccc4OC)CC3)sn2)cc1` was tested, and the “% Inhibition” value was 11% and the Z score was -1.37. `NC(=O)Cc1n[nH]c(-c2csc3c2CCCC3)n1` was tested, and the “% Inhibition” value was -16% and the Z score was 2.11. `O=C(NC1CCCCC1)c1cc2c(F)cccc2s1` was tested, and the “% Inhibition” value was 9% and the Z score was -1.03. For `Cc1n[nH]c(-c2cc(S(=O)(=O)N3CCc4ccccc4C3)c(C)s2)c1C`, the “% Inhibition” value was -9% and the Z score was 1.04. `COC(=O)N1CCC(c2nnc(Cn3cccn3)n2C)CC1` was tested, and the “% Inhibition” value was -8% and the Z score was 0.74. In the case of `CN(C)CCC1CCN(S(=O)(=O)C2Cc3ccccc3C2)CC1`, the “% Inhibition” value is reported as -14% and the Z score is reported as 2.19. For `Cc1ccsc1[C@H]1CCN(Cc2c(C)nn(C(C)C)c2C)C[C@@H]1O`, the “% Inhibition” value was -6% and the Z score was 0.69. `NCCOc1cccc(CC(=O)N2CCCCC[C@H]2c2cccc(F)c2)c1` was tested, and the “% Inhibition” value was -6% and the Z score was 0.84. `Cc1cc(-c2nc(CN(C(=O)c3ccccc3)C3CC3)no2)n[nH]1` was tested, and the “% Inhibition” value was -4% and the Z score was 0.49.
